# This is one part of the list.
# Test system: PfAP2-HC AP2 domain (GST-tagged)
# Assay: gcPBM binding intensity (ln(normalized median fluorescence intensity)); higher = stronger DNA binding
# How it was run: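 Using an Agilent 4 × 180k array, primer-extended double-stranded 36-bp intergenic genomic probes and negative controls were exposed for 1 h to GST-fused P. falciparum DNA-binding domains expressed in E. coli. Binding was carried out in 1× PBS with 1% milk, 0.2 mg/ml BSA, 0.5% salmon testes DNA and 0.03% Triton X-100, and protein was detected with Alexa488 anti-GST antibody and a 488 nm scan. Binding intensity is the highest Masliner-normalised natural-log median intensity across replicate spots of either probe orientation.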
row,Sequence,gcPBM binding intensity (ln)
1,AAGAAATAAAAAGAATGTACACAATATGTATTATAA [XGTACX_site4733],9.79
2,TGGACAATTGTTTATTGTACTTAAATTTTATGTTCT [XGTACX_site8974],9.58
3,ATAAATAAATAAATAAATAAATATACATATACATAT [CACACA_negctrl_site205],9.71
4,AAATTTATATATAGTTGTACAAAAATATGTTTCGTA [XGTACX_site4801],9.81
5,TTATTTTATCACACATGTACATATGTTAATTTTTTT [XGTACX_site5598],9.8
6,TGAATAATCAATAGTACACACATATAAATATATATA [CACACA_site2813],9.91
7,AAAATAAAAAGAAATAAATTAACAGTAAGGAAAAAA [CACACA_negctrl_site1105],9.71
8,CCTTTTTCTAATGGATGTACTTATTATATACATTAT [XGTACX_site281],9.75
9,AAGAAAAGTAAATATGCATGTAGGGTAGGTTATTTT [TGCATGCA_site46],9.87
10,TATATATATCTGTATACACACATATGTATGTTATGT [CACACA_site6090],10.3
11,ATATTTTTTCTGAACGGTACAGAATTTTTCAAGATT [XGTACX_site484],9.58
12,TAATTTATTAATAATTGTACAGATATTATACTTAAA [XGTACX_site8947],9.32
13,TAATTCATCCTATGCACACACAATACCAAAATGTGC [CACACA_site4269],9.96
14,TTTTGAATTAAACAAGCATGCTTTATTTACTTCTTA [TGCATGCA_site289],9.7
15,TGCTCATGAGGTCAGAGTACAAAATAGTAAATGTAT [XGTACX_site2973],9.56
16,TTTATTTTTATTTTTGTGCACGGGATTAAATAAAAG [GTGCAC_site9842],9.31
17,TTTTTTTTTTTTTTTCTTTTTTATTCTCACAAAAAA [CACACA_negctrl_site1790],8.76
18,AACATTTATATTTAAGTGCAGATGCTGTAATTTAGA,9.47
19,TTTTTATAACAAAGTATTTAAATAATTTATACTAAT [TGCATGCA_negctrl_site104],9.35
20,GAACAAATTACAAGTTGTACTTTATGTAAATTATTA [XGTACX_site5304],9.55
21,ATGCGTTCATACATACATACATACATACAATTTGTA [TGCATGCA_negctrl_site50],9.79
22,GATTATCTTCAAGTATGTACACACTATATATAATAA [XGTACX_site5108],9.68

row,Sequence,gcPBM binding intensity (ln)
1,AATAAATAGAGGAAATGTACATATAAAAATAATTTC [XGTACX_site2454],10
2,TTAACATCTTCGTTGACACACAAAAAAAAAAATAAT [CACACA_site1819],9.65
3,TACACAAACAGACACACACACACACGCGCACAAAAA [CACACA_site7192],11
4,ATTACATGTATACATGTCAACACGTATAAAAAAAAA [CACACA_negctrl_site1154],9.7
5,ATTATAAATATATTTTGTACTTAAAAGGAAAAAAAA [XGTACX_site55],9.47
6,AATAAGCATAGACACACACACAAAAAAAAAAAAAAA [CACACA_site6476],10.1
7,ATATAACAGAAACACACACACATATATATATATTAT [CACACA_site4140],11.3
8,TATTTTTATATATAATCACACATTGGAATGTTCTAA [CACACA_site5540],9.6
9,ATAAATGATAGTAAAAGTACACAAAATGTTTTAAAA [XGTACX_site1623],9.77
10,GCACGAAACAATGTATATATATATATATATATATAT [GTGCAC_negctrl_site412],9.9
11,TTCTTTATGGAAGTGTAAAAAAAGAAATACTTTTTT [CACACA_negctrl_site915],9.32
12,TTTTTTTTTTTGGTTACACACATTTGTATATTCTCA [CACACA_site134],9.89
13,CATATTAATACAGAATGTACGGATAACAAACTGTTT [XGTACX_site7935],9.63
14,ATAATTATATGATGAGTGCACAATAAAAATATCGTT [GTGCAC_site9920],9.81
15,GGTCATCATCGGTATTGTACAAAAATGTGAAAATTA [XGTACX_site639],9.52
16,TTTTATTTAGGAGGTGCATGTAATACGGAACATAAT [TGCATGCA_site827],9.55
17,CCATAACTCCTATGCACACATAAATATTACAGAGAT [CACACA_site5984],9.81
18,TTTGATTTTAATGTGTGTACACATTTATTTATATAA [XGTACX_site4806],9.75
19,GATTTATATTTTAAAAGTACAAGTTAAAATAAAAGT [XGTACX_site7059],9.6
20,AATATAAGATTATTATGTACATAATAAATATGTATT [XGTACX_site4773],9.71
21,ATATAAGTATAATTATGTACTTATACTTATATAAAT [XGTACX_site5585],9.57
22,ATATAATATCTGTATACACACATATTATATAATATT [CACACA_site5940],9.91

# From the supplement of paper PMC11417369
